In all, about 13,000 compounds were measured (“IFI”: median about 4, highest 2% from about 17 on). This is one part of the list.

The test is described as follows: GSK_TCMDC: Inhibition Frequency Index (IFI). The number of non-kinase HTS assays where a compound showed > 50 % inhibition, expressed as a percentage of the number of such assays in which the compound was tested (-0 is zero). Type of test: functional.
`COC1(C)Oc2ccc3cccc([N+](=O)[O-])c3c2C1=O` (stereo not drawn) came in with an IFI of 0.74%.
Regarding `Cc1nc(C)c(-c2ccc(Cl)cc2Cl)c(O)c1Br`, the IFI is -0%.
Consider `N#Cc1ccc(NC(=O)Nc2ccc3c(c2)CCN(C2CCC2)CC3)cc1`, for which the IFI is -0%.
Compound `CCOc1cc(NCCCNc2ncc([N+](=O)[O-])cc2C)nc2ccccc12` displayed an IFI of 4.29%.
As for `CCN(CCCN1CCCCC1)c1cc(C)nc(Nc2cc(Br)ccc2C)n1`, the IFI came to 6.33%.
In turn, `CS(=O)(=O)NCCCNCc1cccc(-c2cccc(-c3nc4cc(F)ccc4[nH]3)c2)c1` showed an IFI of 2%.
As for `CC(CN(C)C)C(=O)Nc1cccc(-c2ccc(-c3nc4cc(F)ccc4[nH]3)cc2)c1` (stereo not drawn), the IFI worked out at 8.04%.
`C=CCOC(=O)N1CCC(CNCc2cccc(-c3ccc(-c4nc5ccccc5[nH]4)s3)c2)C1` (stereo not drawn): the IFI was determined as 6.73%.
As for `CN(C)CCNC(=O)N1CCCN(c2ncnc3cc(-c4ccccc4)sc23)CC1`, the IFI turned out to be 2.04%.
With `CC(=O)COc1c(C2CCN(CCCCNC(=O)c3ccc(-c4ccc(C(F)(F)F)cc4)cc3)CC2)ccc2c1CCCC2`, the IFI was 11.6%.
`O=[N+]([O-])c1ccc(C(O)CNCCc2ccccc2)cc1OCc1ccccc1` (stereo not drawn) gave an IFI of 4.8%.
Consider `O=C(NC1CC1)c1ccc(N2CCC(Cc3ccccc3)CC2)c([N+](=O)[O-])c1`, for which the IFI came to 4.86%.
Turning to `C=C[C@H]1CN(CCCCCCC)CC[C@H]1C[C@@H](Cc1ccnc2ccc(OC)cc12)OC(=O)[C@](OC)(c1ccccc1)C(F)(F)F`, the IFI turned out to be 5.26%.
In the case of `CNC(=O)c1cnc(Nc2ccc(N3CCN(C)CC3)cc2)nc1Nc1ccccc1OC`, the IFI was determined as 6.67%.
For `CCC(C)NC(=O)Nc1cccc(-c2cccc(-c3nc4cccc(C)c4[nH]3)c2)c1` (stereo not drawn) the value was 2.94%.
As for `N=C(N)Nc1nc(-c2cccc(NCCCCCCCCON3C(N)=NC(N)=NC34CCCCC4)c2)cs1`, the IFI is 9.86%.
Compound `Cc1cnc(CN(Cc2ccc(-c3ccc(CNCCc4ccc(S(C)(=O)=O)cc4)cn3)cc2)C(=O)c2ccc([N+](=O)[O-])c(C)c2)cn1` displayed an IFI of 2.13%.
Turning to `Cc1ccc(CNc2ccc3ncc(-c4cccc(C(=O)NCCN(C)C)c4)n3n2)c(C)c1`, the IFI is 12.6%.
For `CCCCCN1C(=O)C(c2ccccc2)(c2ccccc2)N=C1N` the value was 4%; for `O=S(=O)(Nc1ccc(CCN2CCC(N3CCCCC3)CC2)cc1)c1ccc2ccccc2c1`, 12.7%; for `COc1ccccc1CCNc1nc(C)cc(N[C@@H](Cc2ccccc2)C(=O)Nc2ccccc2)n1`, 13.6%.
The compound `CCCN(CCC)CCCN(CCCN(CCC)CCC)c1cc(C)nc(Nc2ccc(Cl)cc2)n1` yielded an IFI of 6.52%.
The compound `Cc1cccc(-c2ccc(CNC3CCN(CC4Cn5c(=O)ccc6ccc(F)c4c65)CC3)cn2)c1` (stereo not drawn) yielded an IFI of 4.17%.
Consider `CN1CCN(c2ncnc3ccc(NC(=O)Nc4ccc(Cl)c(Cl)c4)cc23)CC1`, for which the IFI is 4.55%.
In turn, `Cc1ccc(CN2CCC(Oc3cccc(NC(=O)c4ccc(C(F)(F)F)cc4)c3)CC2)cc1` yielded an IFI of 11.7%.
For `O=C(c1ccc(-c2ccc(Cl)cc2)o1)N1CCc2cc3nccc(N4CCN5CCC[C@H]5C4)c3cc21` the value was 8.89%.
For `Cc1cc(NC(=O)Nc2cccc(Cl)c2Cl)c2ccccc2n1` the value was 2.16%; for `N=C(N)Nc1nc(-c2cccc(NC(=O)C(F)(F)F)c2)cs1`, 1.45%.
As to `O=c1cc(NCCCNCc2cc(Br)ccc2F)[nH]c2ccccc12`, the IFI was found to be 1.44%.
For `CNC(=O)/C=C/c1cc(NC(=O)Nc2ccnc3c(Br)cccc23)ccc1OC` the value was 4.38%.
As to `C[C@H](Cc1ccc(C[C@@H](C)NC[C@H](O)c2cccc(Cl)c2)cc1)NC[C@H](O)COc1ccccc1`, the IFI was determined as 7.91%.
In turn, `Cc1cccc2nc(-c3cccc(-c4cccc(NC(=O)CC5NC(=O)c6ccccc65)c4)c3)[nH]c12` (stereo not drawn) gave an IFI of 3.64%.
In the case of `CC(C)(NCc1ncc[nH]1)c1nc(-c2ccc(Cl)c(O)c2)c(-c2ccncc2)[nH]1`, the IFI was determined as 1.48%.
For `CN(C)C(=S)N/N=C1/C(=O)Nc2ccc(OC(F)(F)F)cc21` the value was 8.57%; for `CCCCCCCCCc1c(C)[nH]c2ccccc2c1=O`, 1.45%.
In turn, `COc1ccc(-c2ccc(NC(=O)c3ccc(C#N)cc3)cc2)cc1CNC(C)C` registered an IFI of 1.98%.
Compound `COc1ccc(CNc2ncc(-c3ccsc3)c(-c3nccs3)n2)cc1OC` returned an IFI of 3.37%.
Consider `O=C(N1CCN(c2cccc(C(F)(F)F)c2)CC1)C(Cl)(Cl)Cl`, for which the IFI turned out to be 1.42%.
The compound `CCCCCCCCOc1ccc(N2C(N)=NC(N)=NC2(C)C)cc1` had an IFI of 8.39%.
`Cc1[nH]c(C)c(-c2ccc(-c3ccc(OC(F)(F)F)cc3)nc2)c(=O)c1Cl`: the IFI was found to be 1.69%.
In the case of `Cc1cc(=O)c2cc(Oc3cccc(OC(F)(F)F)c3)ccc2[nH]1`, the IFI was determined as 2.63%.
For `Cc1ccc(Cn2c(N3CCC(C(=O)NCc4cccs4)CC3)nc3ccccc32)cc1` the value was 3.96%; for `CN(C)CC(O)C(c1ccccc1)c1cccc(Br)c1` (stereo not drawn), 0%.
The compound `COc1cccc(OC(C)(C)c2nc(N[C@@H](C)c3ccccc3)c3cn[nH]c3n2)c1` came in with an IFI of 10.5%.
`Nc1nc(N)c2c(Cl)c(N(Cc3ccccc3)Cc3ccccc3)ccc2n1`: the IFI turned out to be 2.17%.
Compound `NCCC(=O)Nc1ccc(-c2cnc3[nH]cc(-c4ccc(C(=O)O)cc4)c3c2)cn1` registered an IFI of 3.23%.
As for `CC(=O)Nc1ccc2[nH]cc(C3CCN(CC4CCC(NC(=O)/C=C/c5ccc(Cl)c(Cl)c5)CC4)CC3)c2n1` (stereo not drawn), the IFI came to 0.71%.
In the case of `COc1cc2nc(N3CCN(C(=O)c4ccco4)CC3)nc(NCc3ccccc3)c2cc1OC`, the IFI is 4%.
`O=C(NC1CCN(Cc2cccc(C(F)(F)F)c2)CC1)c1ccc(-c2cccc(Cl)c2)s1` gave an IFI of 10.9%.
In the case of `COc1ccc(CNCc2ccc(-c3ccc(-c4nc5cccc(C)c5[nH]4)cc3)cc2)cc1`, the IFI amounted to 13.1%.
Regarding `CN(C)Cc1ccc(CNC2CCN(Cc3ccccc3Cl)CC2)cc1`, the IFI is 0.69%.
In the case of `CCCCOC(=O)C1=C(C)NC2=C(C(=O)CCC2)C1c1ccc(OC)c(Br)c1` (stereo not drawn) it was 0.72%.
In the case of `COc1ccc(CCNc2nc(SCc3ccccc3Cl)nc3ccccc23)cc1OC` it was 2.21%.
In the case of `Cc1nc(-c2cccc3c(NC(=O)Nc4ccc5nccc(N6CCN(C)CC6)c5c4)cccc23)no1`, the IFI was found to be 4.38%.
In the case of `CN1CCN(c2cc(NC(=O)Nc3ccc(-c4ccncc4)c(Cl)c3)ccc2Br)CC1`, the IFI turned out to be 5.84%.
The compound `COc1ccc(Nc2nccc(N3CCC(NC(=O)Nc4cccc(C(C)=O)c4)C3)n2)cc1` (stereo not drawn) had an IFI of 0%.
As to `CC1CCN(CC[C@H]2CCCN2S(=O)(=O)c2cccc(NC(=O)c3ccc(-c4ccccc4)cc3)c2)CC1`, the IFI came out at 6.92%.
`COc1cccc(CNC[C@@H](O)[C@H](Cc2ccccc2)NC(=O)c2cc(NC(C)C)cc(N3CCCCS3(=O)=O)c2)c1` had an IFI of 2.08%.

The record behind these values is ChEMBL document CHEMBL1157539, “Thousands of chemical starting points for antimalarial lead identification” (Nature, 2010).
